In publication PMC6919601, “Identification of Plasmodium dipeptidyl aminopeptidase allosteric inhibitors by high throughput screening” (PLoS ONE, 2019):
Screen size: about 110,000 compounds; about 230 (0.21%) showed an effect of 50% or more. Some of the results follow.

target: DPAP1 (Plasmodium falciparum, UniProt Q8IIJ9); assay: primary screen, percent inhibition; read by cleavage of a fluorogenic dipeptide substrate; higher = more effect of the substance; set-up: species or system P. falciparum D10 trophozoite lysates; single well
Sequence (Q8IIJ9 whole entry, looked up): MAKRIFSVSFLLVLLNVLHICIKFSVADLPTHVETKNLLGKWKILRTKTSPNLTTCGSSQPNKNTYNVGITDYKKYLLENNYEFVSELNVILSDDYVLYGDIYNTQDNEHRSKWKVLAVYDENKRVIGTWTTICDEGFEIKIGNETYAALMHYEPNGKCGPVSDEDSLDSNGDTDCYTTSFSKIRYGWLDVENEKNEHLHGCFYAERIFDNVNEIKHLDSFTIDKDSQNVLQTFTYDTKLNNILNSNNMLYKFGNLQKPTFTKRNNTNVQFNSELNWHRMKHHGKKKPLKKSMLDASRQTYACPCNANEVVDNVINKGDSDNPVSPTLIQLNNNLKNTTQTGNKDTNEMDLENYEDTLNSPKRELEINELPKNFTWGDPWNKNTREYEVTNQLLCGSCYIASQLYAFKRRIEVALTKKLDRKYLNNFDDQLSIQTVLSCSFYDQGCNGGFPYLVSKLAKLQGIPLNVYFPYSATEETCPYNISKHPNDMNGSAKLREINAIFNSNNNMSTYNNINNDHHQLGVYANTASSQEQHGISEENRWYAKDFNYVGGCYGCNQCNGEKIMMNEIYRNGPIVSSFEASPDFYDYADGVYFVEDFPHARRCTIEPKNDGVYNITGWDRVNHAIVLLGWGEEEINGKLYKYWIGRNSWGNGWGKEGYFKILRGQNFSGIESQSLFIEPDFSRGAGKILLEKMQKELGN
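Note: 30 min substrate incubation versus DMSO and 10 µM JCP410 controls.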

SMILES | % Inhibition @ 10 uM [%]
Cc1ccc(C(C)C)c(OCC(O)CN2C(C)CCCC2C)c1 (stereo not drawn) | 5
CCCNC(=O)CN(c1cccc(Cl)c1)S(=O)(=O)c1ccc(OC)cc1 | 1.94
N#CC1C(=O)N=C(N2CCN(Cc3ccc4c(c3)OCO4)CC2)NC12CCCCC2 (stereo not drawn) | -7.15
CC(C)c1ccc(N(CC(=O)Nc2cccc3ccccc23)S(C)(=O)=O)cc1 | -0.173
CCOc1ccc(C(=O)Nc2ccc(Br)cc2)cc1 | 11.5
CCn1ncc(C2=NOC(C(=O)NCc3ccc4c(c3)OCO4)C2)c1C (stereo not drawn) | -1.37
C=CCn1c(SC)nc(=O)c(CC)c1O | 4.03
c1ccc(CCn2cccc2)cc1 | -6.42
O=C(COc1ccccc1Cl)N1CCN(c2ccccn2)CC1 | -0.759
COc1ccc(-c2nnc3n(Cc4ccc(F)cc4)c(=O)c4ccccc4n23)c(O)c1 | -1.72
CC(C)Oc1ccc(/C=C2\SC(=O)N(CC(=O)Nc3ccccc3)C2=O)cc1 | -5.15
CC(C)N1C(=O)CCC1C(=O)N1CCC(Cc2ccccc2)CC1 (stereo not drawn) | -1.34
COC(=O)c1ccc2nc(Nc3nc4c(OC)cccc4s3)sc2c1 | 0.458
Cc1ccc(S(=O)Cc2ccc(C(=O)NC3CCC(C)CC3)o2)cc1 (stereo not drawn) | 0.458
CN1C(=O)S/C(=C/c2ccc(-c3cccc(F)c3)o2)C1=O | 1.28
OC(CN1CCOCC1)C12CC3CC(CC(C3)C1)C2 (stereo not drawn) | -3.32
O=C1CCCCCN1CP(=O)(O)C1Cc2ccccc2C1 | -1.69
CCN1C(=O)/C(=C2/Sc3ccc(Cl)cc3N2C)S/C1=N/c1ccc(Cl)cc1 | -10.7
CCOc1ccc(-n2nnc(-c3nc(-c4cccnc4)no3)c2N)cc1 | 1.66
CCn1c(C)cc(/C=C2\SC(=O)N(CC(=O)Nc3ccc(F)cc3)C2=O)c1C | 2.79
Cc1ccc2[nH]c(C)c(CCNC(=S)NC(C)(C)C)c2c1 | -5.79
OCCN1CCN(c2ncnc3sc4c(c23)CCC4)CC1 | -0.511
Cc1ccc(N(CC(=O)NC2CC3CCC2C3)S(C)(=O)=O)cc1Cl (stereo not drawn) | 5.99
Cc1nn(C(C)C(=O)NCCc2ccc(Cl)cc2)c(=O)c2c1sc1ccccc12 (stereo not drawn) | -4.26
CC1=C(C(=O)NCCc2cccs2)C2(CCCCCC2)OC1=O | 3.48

SMILES | % Inhibition @ 10 uM [%]
CC1(C)Cc2c(sc3nc(SCC(N)=O)n(CCc4ccccc4)c(=O)c23)CO1 | 5.9
CCCN1CCC(NC23CC4CC(CC(C4)C2)C3)CC1 | -0.414
Cc1onc(-c2c(Cl)cccc2Cl)c1C(=O)Nc1ncccn1 | 2.08
COC(=O)C1=CNC=C(C(=O)OC)C1c1ccccc1Cl | -5.03
CN(C)CCNC(=O)c1ccc(S(=O)(=O)N2CCCCC2)cc1 | -6.92
CN1CCN(Cc2cccc(Cl)c2)CC1 | 4.81
C=CCn1c(SCC(=O)Nc2nnc(CC)s2)nnc1-c1cccs1 | 2.18
COc1ccc(C(CC(=O)O)NS(=O)(=O)c2ccc(C)cc2)cc1OC (stereo not drawn) | 0.279
Cc1ccc(CNC(=O)Cn2ccc3cc(S(=O)(=O)N4CCCC4)ccc32)o1 | -3.14
CCN1CCN(C(=O)Cn2cc(S(=O)(=O)N3CCCC3)c(S(=O)(=O)N3CCCC3)c2)CC1 | 0.802
CCOC(=O)C1=C(C)N(c2ccc(C)cc2)C(=O)C1 | -0.631
Cc1ccccc1C(=O)Nc1ccc(-c2ccc([N+](=O)[O-])cc2)cc1 | -4.33
COc1ccc(C2CC(=O)N=C(NC(=O)c3cccc(C)c3)N2)c(OC)c1OC (stereo not drawn) | -1.59
CCOC(=O)c1sc(NC(=O)C(CC)Sc2nnc3c4ccccc4n(C)c3n2)nc1C (stereo not drawn) | -6.95
O=C1C=C(NCCN2CCOCC2)CC(c2ccco2)C1 (stereo not drawn) | 3.96
CC1=C(C(=O)NC2CCCc3ccccc32)C2(CCCCC2)OC1=O (stereo not drawn) | -0.138
C=CCO/C(O)=C1/C(C)=Nc2ncnn2C1c1ccncc1 (stereo not drawn) | -3.37
Cc1cc(N2CCOCC2)nc(-c2ccc(Br)cc2)n1 | -2.36
COc1ccc(C)cc1N(CC(=O)NCc1ccccc1C)S(=O)(=O)c1ccccc1 | -1.61
CC(C)CC(C(=O)NCC#N)c1cccc(-c2csc(N3CCC(NC(C)(C)C)CC3)n2)c1 (stereo not drawn) | 1.7
Cc1cccc(C(=O)Nc2cccc(O)c2)c1 | 3.49
CCc1nn(CC(=O)NCC(C)c2ccccc2)c(=O)c2cc3sccc3n12 (stereo not drawn) | -5.19
COc1ccc(-c2cc(C(=O)Nc3cc(C)nn3-c3ccccc3)no2)cc1 | 0.0654
Cc1cc(-c2ccc(C)c(S(=O)(=O)N3CCC(N(C)CC4CCCO4)CC3)c2)on1 (stereo not drawn) | 7.83
CN(Cc1ccccc1)S(=O)(=O)c1ccc(NC(=O)Cc2ccccc2)cc1 | -0.185

SMILES | % Inhibition @ 10 uM [%]
COc1ccc(-c2cc(C)no2)cc1S(=O)(=O)N1CCC(N(C)CCN2CCOCC2)CC1 | 5.65
COc1ccc(CCNC(=O)C(=O)Nc2ccc3c(c2)OCCO3)cc1OC | 2.22
CC(C)(C)Nc1nc(C(N)=O)nc(N2CCOCC2)n1 | -4.62
COc1cccc(C(=O)Nc2nc3ccc(Cl)cc3s2)c1 | 4.12
Cc1cc(NC(=O)c2onc(C)c2Cl)n(-c2ccccc2)n1 | 3.2
C=CCSc1nc(C)c2cc(C)ccc2n1 | 5.46
N=C1S/C(=C\c2ccc(-c3ccccc3F)o2)C(=O)N1c1nccs1 | -4.72
COc1ccc(NC(=O)CSc2nc(C)c(Cc3ccccc3)c(O)n2)cc1 | -0.413
CCOc1ccccc1C(=O)Nc1cc(C(F)(F)F)ccc1Cl | 1.84
Cn1c(=O)c2c(nc(N3CCOCC3)n2CCCNC2=NCCCC2)n(C)c1=O | -1.84
Cc1ccc(C(=O)N/C(=C\c2cccs2)C(=O)NC2CCN(Cc3ccccc3)CC2)cc1C | -2.68
CCc1cccc(CC)c1NC(=O)C(C)NS(=O)(=O)c1ccc(C)cc1 (stereo not drawn) | -0.318
CC(C)N(Cc1nc(-c2ccccc2)no1)C(=O)CCCN1C(=O)c2ccccc2C1=O | -7.55
CC(C)C[C@H](NC(=O)OCc1ccccc1)C(=O)NCC#N | 0.556
COc1ccc(C(=O)Nc2cc(-c3ccccc3)[nH]n2)cc1 | 5.45
O=C(NC1CCCC1)c1ccc(CSc2nc3ccncc3[nH]2)cc1 | 4.95
O=C(O)c1cccc(NC(=O)c2ccccc2F)c1 | 0.708
C=CC[C@@H]1Cc2c(Br)ccc(Br)c2[C@@H](CC=C)N1 | 0.279
O=C(O)c1cccc(NC2=C(Cl)C(=O)N(c3ccc(Cl)cc3Cl)C2=O)c1 | -4.48
Cc1ccc(-c2csc(/C(C#N)=C/c3ccc(Cl)cc3)n2)c(C)c1 | -8.12
O=C(Nc1ccccc1C(=O)O)c1cc(S(=O)(=O)N2CCCCC2)c(Cl)cc1Cl | -5.23
CC1CCc2c(C(=O)NC3CCN(Cc4ccccc4)CC3)csc2C1 (stereo not drawn) | -1.65
Cc1noc(C)c1S(=O)(=O)NCc1ccc(Cl)cc1 | -0.426
CN1CCN(CCCNC(=O)C2c3ccccc3C(=O)N(C3CCCC3)C2c2cccs2)CC1 (stereo not drawn) | 3.04
CC1=NN(c2cc(C)nc(-c3ccccc3O)n2)C(=O)C1 | -5.62

SMILES | % Inhibition @ 10 uM [%]
Cc1cc(C)c2c3c(sc2n1)C(c1ccccc1)C(C#N)=C(N)O3 (stereo not drawn) | -3.9
CN1C(N)=NC(=O)/C1=C/c1ccc2c(c1)OCO2 | -4.03
CCc1ccc2[nH]cc(CCN)c2c1 | 0.847
O=C(O)C1C2CCC(C2)C1C(=O)Nc1nc2ccccc2s1 (stereo not drawn) | -0.996
CCN(CC)CCOc1cccc(Cl)c1Cl | 3.76
CN1CCN(S(=O)(=O)c2ccc3c(c2)C(=O)c2ccccc2C3=O)CC1 | -1.98
COc1ccc(CCNC(=O)CCCc2nnc3n(C)c(=O)c4sccc4n23)cc1OC | 1.68
COc1ccc(N2C(=O)C3ON(c4ccccc4)C(c4ccco4)C3C2=O)cc1 (stereo not drawn) | 4.33
CCN(CC)c1ccc(C2C(C#N)=C(N)N(c3ccc(Cl)cc3)C3=C2C(=O)CC(C)(C)C3)cc1 (stereo not drawn) | 3.15
Cc1ccc(-c2csc(NC(=O)C3CC4CCC3C4)n2)cc1 (stereo not drawn) | -8.86
O=C(CSc1ccccc1C(=O)O)Nc1ccccc1 | -6.43
COc1ccc(C(=O)N2CCN(C(=O)c3ccccc3F)CC2)cc1 | -3.24
CCOC(=O)c1c(NC(=O)C(C)(C)C)sc2c1CCN(C(=O)OCC)C2 | 1.72
Cc1cc(S(=O)(=O)NCCSCc2ccc(Cl)cc2)ccc1F | 2.18
O=C(O)c1ccc(C(=O)c2ccc3c(c2)C(=O)N(c2cnc(O)nc2O)C3=O)cc1 | 4.42
Cc1cccc(NC(=O)COc2ccc(C)c(C)c2)c1 | 2.55
COc1cccc2c1oc(=O)c1c(NC(C)=O)nc3c(c12)CCCC3 | 0.415
N#CCNC(=O)[C@H](CSCc1ccccc1)NC(=O)c1ccc2ccccc2n1 | 1.35
CC1CCCCN1S(=O)(=O)c1ccc(NC(=O)c2ccco2)cc1 (stereo not drawn) | 1.57
COc1ccc2cc(CCNS(C)(=O)=O)c(O)nc2c1 | 0.13
CCOc1ccc(C2C(C#N)=C(N)Oc3[nH]nc(-c4ccccc4)c32)cc1OCC (stereo not drawn) | 5.49
CC(C)C[C@H](NC(=O)c1ccc(C2CCCCC2)cc1)C(=O)NCC#N | -8.26
Cc1cccc(-c2cc(C(=O)Nc3ccccc3C(N)=O)c3ccccc3n2)c1 | 10.2
CC(C)(C)NC(=O)c1oc2ccccc2c1NC(=O)c1cccc(F)c1 | -0.909
